# Experimental data published in the supplement of paper PMC12340641.
# Whole data set: some 1,000 compounds, median “relative growth in counter assay (no AraC = 100%, AraC + DMSO = 0%)” near -1.1, cut for the highest 2% near 20. The list shows a part of the results.
# System: HEK293FT dCK*-only
# Assay: relative growth in counter assay (no AraC = 100%, AraC + DMSO = 0%); higher = more growth rescue independent of IKZF1
# Conditions: compound concentration: 5 uM; AraC concentration: 0.3 uM; overnight pretreatment + 4 days AraC
# Method: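 Growth recovery screen of the molecular-glue-like (Specs) library. HEK293FT cells expressing a dCK*-IKZF1 fusion (primary) or dCK* alone (counter) were pretreated overnight with compound at 5 uM, then given 0.3 uM AraC for 4 days. Hoechst nuclei were counted by imaging. Primary: normalised to pomalidomide (100%) and DMSO (0%), mean of 2 replicates. Counter: normalised to no-AraC (100%) and AraC+DMSO (0%), single replicate.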
row,SMILES,relative growth in counter assay [%]
1,COC(=O)C1(c2cccc(Nc3ncc(C)s3)n2)CCN(C(=O)C2CCCCC2)CC1,-4.66
2,CCCc1cnc(Nc2cccc(C3(C(=O)OC)CCN(C(=O)C4CCCCC4)CC3)n2)s1,-1.2
3,Cc1cnc(Nc2cccc(C3(C(=O)O)CCN(C(=O)CC(C)(C)C)CC3)n2)s1,-4.6
